According to the supplement of paper PMC10338343:
± gives the standard deviation. The full ranking holds about 6,600 sequences; the median of “pre-steady-state target cleavage rate” is about 0.07, and the highest 2% start at about 0.72. This is a selection; strong and weak results do not stand in their true shares.

Test system: MIWI (PIWIL1) piRISC loaded with Kctd7 piRNA (30 nt)
Assay: pre-steady-state target cleavage rate (min^-1); MIWI and MILI are mouse PIWI proteins and EfPiwi is from a freshwater sponge; tags in brackets are library labels; higher = faster piRNA-guided slicing of the target
Conditions: guide: Kctd7 piRNA 5'p-UGUUAAUCUCUCAGAGAAGGUGACAGUGAU; auxiliary factor: 500 nM mouse GTSF1
Procedure, shortened: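 Cleave-'n-Seq used a transcribed, DNA-blocked target RNA library at 0.1 nM and active affinity-purified piRISC with one synthetic guide at 1 nM, with or without 500 nM GTSF1 partner protein, in HEPES–potassium acetate buffer at 33 °C for 0–8 or 0–960 min. Uncleaved targets were sequenced and normalised to depth and to weakly complementary targets, and three trials were pooled with k3 capped at 0.0001 min^-1. The pre-steady-state cleavage rate was estimated by a burst-and-steady-state fit.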

Sequence | pre-steady-state target cleavage rate
UAGUGACACACGUUGUCUGAGAGAUUAACA | 0.0596 ± 0.011
AUGACUGUCACCUUCUCUGAGAGAUUAUCA | 0.347 ± 0.038
UAGUGAGAGUCCUUCUCUGAGAGAUUAUGA | 0.00681 ± 0.0037
UACACUCAGACCUUCUCUGAGAGAUUAACA | 0.353 ± 0.026
AUCACUGACACCUUCUCUGAGAGAUUAAGA | 0.167 ± 0.034
UUGACUGUCAGCUUCUCUGAGAGAUUAACA | 0.695 ± 0.038
UAGUGACACUCCUACUCUGAGAGAUUAACA | 0.0652 ± 0.0084
UAGUGACAGUCCUUCACUGAGAGAUUUACA | 0.0106 ± 0.0034
UAGUGAGUCACCUUCUCUGAGAGAUUAGCA | 0.19 ± 0.023
UAGUGUCUCUCCUUCUCUGAGAGAUUAACA | 0.0958 ± 0.012
UAGACUGUGACCUUCUCUGAGAGAAUAACA | 0.261 ± 0.041
UACACUGUGACCUACUCUGAGAGAUUAACA | 0.384 ± 0.021
UAGAACUGUCACCUUCUCUGAGAGAUUAACA | 0.682 ± 0.054
UAGACAGUCACCUUCUCUGAGUGAUUAACA | 0.0307 ± 0.006
UAGUGACACACGUUCUCUGAGACAUUAACA | 0.00339 ± 0.0024
UAGUGACUCACCAUCUCUGAGAGAUUUACA | 0.0844 ± 0.013
UAGUGAGUCUCGUUCUCUGAGAGAUUAACA | 0.315 ± 0.023
UAGUGACUCACCUUGUCUGAGAGUUUAACA | 0.0484 ± 0.016
UAGUGACACACCUUCUCUGUGAGAUAAACA | 0.0853 ± 0.014
UAGUGACACACCUUCACUGAGAGAUUAUCA | 0.0626 ± 0.016
UAGUGACAGUGGAUCUCUGAGAGAUUCACA | < 0.0001
UAGUGAGUCACCUUCUCUGAGAGAUUAAA | 0.226 ± 0.035
AUCACUGUCAGCUUCUCUGUGAGAUUAACA | 0.237 ± 0.013
UAGACUGUCACCUUCUCUCAGAGAUUAUGA | 0.00711 ± 0.0033

Sequence | pre-steady-state target cleavage rate
UAGUGUGUCACUUUCUCUGAGAGAUUAACA | 0.553 ± 0.026
UAGUGACAGUGGAAGUCUGUCAGAUUAACA | < 0.0001
UAGUGACUCCCCUUCUCUGAGAGAUUAACA | 0.347 ± 0.037
UAGUGACACACCUUCUCUGAGAGAUAUACA | 0.118 ± 0.024
UAGUCUGUCACCUUCACUGAGACAUUAACA | 0.257 ± 0.033
UAGUCUGUCACCUUCUCUGUGAGAAUAACA | 0.0572 ± 0.01
UAGUGUGCUCACCUUCUCUGAGAGAUUAACA | 0.605 ± 0.046
UACACUGUCACCUUCUUGAGAGAUUAACA | 0.0539 ± 0.018
UACACAGUGACCUUCUCUGAGAGAUUAACA | 0.345 ± 0.021
UAGUGUGUCUCCUUCUCUGAGAGAUUAUCA | 0.0796 ± 0.013
UUCACUGUCACCUUCUCUGAGUGAUAAACA | 0.0317 ± 0.0065
UAGUGACAGUGGAAGAGUGAGAGAUAUACA | < 0.0001
UAGACUGUCACGUUCUCUGUGAGAUUAACA | 0.168 ± 0.011
UAGUCUGUCACUCUUCUCUGAGAGAUUAACA | 0.543 ± 0.03
UAGACUGUCACCCUUCUCUGAGAGAUUAACA | 0.517 ± 0.042
UAGUGACACACCUUCUCUGAGAGCUUAACA | 0.183 ± 0.024
UACAGUGUCACCUUCACUGAGAGAUUAACA | 0.435 ± 0.028
UAGUGAGUCACGUACUCUGAGAGAUUAACA | 0.12 ± 0.013
UAGUGACACUGGUUCUCUGAGAGAUUAACA | 0.0768 ± 0.0071
UAGUGACUCACCUUCUCUCAGACAUUAACA | 0.0177 ± 0.0033
UAGUGACAGACCUUGUCUGAGUGAUUAACA | 0.0081 ± 0.0029
UAGUGUGUCACCUUGUCUGUGAGAUUAACA | 0.125 ± 0.012
UUCACUGUCACCUUCUCUGUCUGAUUAUGA | 0.0123 ± 0.0065
UACACUGUCACGUUCUGUGAGAGAUUAACA | 0.461 ± 0.034

Sequence | pre-steady-state target cleavage rate
UAGUGUGUCAACCUUCUCUGAGAGAUUAACA | 0.211 ± 0.017
UAGACUGUCACCUUCAUCUGAGAGAUUAACA | 0.11 ± 0.025
UAGACUGUCACCUUCUCUGAGAGAGUUAACA | 0.488 ± 0.065
UAGACUGUCACGCUUCUCUGAGAGAUUAACA | 0.563 ± 0.029
AUCUCUGUCACCUUCUCUGAGAGAAUAACA | 0.462 ± 0.078
UAGUGUGUCACCUUCUCUGAGACUUUUUGA | 0.00865 ± 0.0054
UACACUGUCACCUUCUCUGAGAGGUUAACA | 0.322 ± 0.025
AUCACUGUCACCUUCUCUCAGUGAUUAACA | 0.00637 ± 0.0031
UAGUCUGUCACCUUCUCACAGAGAUUAAGA | 0.00417 ± 0.0035
UAGUGACAGACCUUCUGUGAGAGAUUAUCA | 0.0129 ± 0.0034
UAGUGUGUGACCUUCUCUGAGACAUUAACA | 0.0289 ± 0.0064
UAGUGACAGACCUUCUCUGAGAGAUUACA | 0.0295 ± 0.0081
UACACUGUCUCCUUCUCUGAGAGAUAUUGA | 0.0127 ± 0.0054
UAGUGACACAGCUACUCUGAGAGAUUAACA | 0.00832 ± 0.0023
UAGUGUGUCACGAUCUCUGAGAGAUUAUGA | 0.00921 ± 0.0042
UAGUCACACACCUUCUCUGAGAGAUUAACA | 0.569 ± 0.031
AUCUCUGUCACCUUCUCUGAGAGAUAUUGA | 0.0684 ± 0.017
UACACUGUCUCCUUCUCUGUGAGAUUAACA | 0.246 ± 0.017
UACUCUGUCACCUUCUCUGAGAGAUUAAGA | 0.135 ± 0.021
UAGUGUGACACCUUCUCUGAGAGAUUAACA | 0.536 ± 0.026
UAGACUGUCACCUUGACUGAGAGAUUAACA | 0.0808 ± 0.014
UUCAGUCUCACCUUCUCUGAGAGAUUAACA | 0.547 ± 0.023
UAGUCUGUCACCUUCUCUGAGAGUAUAACA | 0.155 ± 0.02
AUCACUGUCACCUUCUGUGAGAGUUUAACA | 0.264 ± 0.037
